Laboratory results reported in PMC12820563, “FoxP3 forms a head-to-head dimer in vivo and stabilizes its multimerization on adjacent microsatellites”.
Some of the results follow.

Biological target: T1, MBP-FoxP1dN (Mus musculus, UniProt P58462 326-579)
T1 sequence: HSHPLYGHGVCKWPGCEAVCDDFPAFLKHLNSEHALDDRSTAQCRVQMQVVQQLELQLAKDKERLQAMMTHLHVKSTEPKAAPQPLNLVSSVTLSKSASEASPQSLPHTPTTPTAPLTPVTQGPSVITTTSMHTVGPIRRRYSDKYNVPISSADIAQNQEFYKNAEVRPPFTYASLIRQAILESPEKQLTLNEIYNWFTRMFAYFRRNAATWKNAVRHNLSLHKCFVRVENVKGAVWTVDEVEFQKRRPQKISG
Assay: PD-seq (MBP pull-down with sequencing); 20 mM Tris-HCl pH 7.5, 100 mM NaCl, 1.5 mM MgCl2, 0.4 uM protein, 0.1 uM dsDNA library, 30 min, room temperature, amylose pull-down; high values mean tight binding
Conditions: protein: recombinant; tags: His6-MBP; chain copies: 2; dsDNA, one strand shown
Procedure, shortened: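 Amylose resin was used to capture complexes formed during 30 min at room temperature in Tris pH 7.5 buffer with NaCl and MgCl2 between 0.4 µM His6-MBP-tagged mouse FoxP3 or FoxP1 fragment lacking the N-terminus, expressed in E. coli, and 0.1 µM Klenow-filled double-stranded degenerate DNA library. After three washes, the DNA was released with proteinase K, barcoded by PCR and sequenced on Illumina. Binding is pooled-replicate reads-per-million enrichment, pull-down over input.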

Row | Sequence | binding signal
1 | GATGATTGTTCTCCCAGCTGATGAATTCAAGACTTCGAGTAAACAAATTTTCCTAATCTTTCTGTTCAAGCGCCATCTAC | 0.797 RPM ratio (pull-down/input)
2 | GATGATTGTTCTCCCAGCTGATGAATTTTCGCAATCGAGTAAACAAATTTTCCTAATCTTTCTGTTCAAGCGCCATCTAC | 1.35 RPM ratio (pull-down/input)
3 | GATGATTGTTCTCCCAGCTGATGAATTCCCGGTTTCGAGTAAACAAATTTTCCTAATCTTTCTGTTCAAGCGCCATCTAC | 0.755 RPM ratio (pull-down/input)
4 | GATGATTGTTCTCCCAGCTGATGAATTGAGGAGTTCGAGTAAACAAATTTTCCTAATCTTTCTGTTCAAGCGCCATCTAC | 0.802 RPM ratio (pull-down/input)
5 | GATGATTGTTCTCCCAGCTGATGAATTCCTCCGCTCGAGTAAACAAATTTTCCTAATCTTTCTGTTCAAGCGCCATCTAC | 0.803 RPM ratio (pull-down/input)
6 | GATGATTGTTCTCCCAGCTGATGAATTTTGCCATTCGAGTAAACAAATTTTCCTAATCTTTCTGTTCAAGCGCCATCTAC | 1.02 RPM ratio (pull-down/input)
7 | GATGATTGTTCTCCCAGCTGATGAATTTGAGTGGTCGAGTAAACAAATTTTCCTAATCTTTCTGTTCAAGCGCCATCTAC | 0.788 RPM ratio (pull-down/input)
8 | GATGATTGTTCTCCCAGCTGATGAATTGGCGAACTCGAGTAAACAAATTTTCCTAATCTTTCTGTTCAAGCGCCATCTAC | 0.801 RPM ratio (pull-down/input)
9 | GATGATTGTTCTCCCAGCTGATGAATTAATGAGTTCGAGTAAACAAATTTTCCTAATCTTTCTGTTCAAGCGCCATCTAC | 0.864 RPM ratio (pull-down/input)
10 | GATGATTGTTCTCCCAGCTGATGAATTTCAGCTTTCGAGTAAACAAATTTTCCTAATCTTTCTGTTCAAGCGCCATCTAC | 0.925 RPM ratio (pull-down/input)
11 | GATGATTGTTCTCCCAGCTGATGAATTTAGTAATTCGAGTAAACAAATTTTCCTAATCTTTCTGTTCAAGCGCCATCTAC | 1.17 RPM ratio (pull-down/input)
12 | GATGATTGTTCTCCCAGCTGATGAATTCGATGTTTCGAGTAAACAAATTTTCCTAATCTTTCTGTTCAAGCGCCATCTAC | 1.06 RPM ratio (pull-down/input)
13 | GATGATTGTTCTCCCAGCTGATGAATTAGGTCGCTCGAGTAAACAAATTTTCCTAATCTTTCTGTTCAAGCGCCATCTAC | 0.826 RPM ratio (pull-down/input)
14 | GATGATTGTTCTCCCAGCTGATGAATTGGCACTCTCGAGTAAACAAATTTTCCTAATCTTTCTGTTCAAGCGCCATCTAC | 0.883 RPM ratio (pull-down/input)
15 | GATGATTGTTCTCCCAGCTGATGAATTCGAAGGCTCGAGTAAACAAATTTTCCTAATCTTTCTGTTCAAGCGCCATCTAC | 0.894 RPM ratio (pull-down/input)
16 | GATGATTGTTCTCCCAGCTGATGAATTTACAGGTTCGAGTAAACAAATTTTCCTAATCTTTCTGTTCAAGCGCCATCTAC | 1.19 RPM ratio (pull-down/input)

Row | Sequence | binding signal
17 | GATGATTGTTCTCCCAGCTGATGAATTTGAAAACTCGAGTAAACAAATTTTCCTAATCTTTCTGTTCAAGCGCCATCTAC | 0.813 RPM ratio (pull-down/input)
18 | GATGATTGTTCTCCCAGCTGATGAATTGTGTAAATCGAGTAAACAAATTTTCCTAATCTTTCTGTTCAAGCGCCATCTAC | 1.59 RPM ratio (pull-down/input)
19 | GATGATTGTTCTCCCAGCTGATGAATTAGTCGTCTCGAGTAAACAAATTTTCCTAATCTTTCTGTTCAAGCGCCATCTAC | 0.85 RPM ratio (pull-down/input)
20 | GATGATTGTTCTCCCAGCTGATGAATTCGATCCTTCGAGTAAACAAATTTTCCTAATCTTTCTGTTCAAGCGCCATCTAC | 0.833 RPM ratio (pull-down/input)
21 | GATGATTGTTCTCCCAGCTGATGAATTAAGTATATCGAGTAAACAAATTTTCCTAATCTTTCTGTTCAAGCGCCATCTAC | 1.11 RPM ratio (pull-down/input)
22 | GATGATTGTTCTCCCAGCTGATGAATTATACGCGTCGAGTAAACAAATTTTCCTAATCTTTCTGTTCAAGCGCCATCTAC | 1.03 RPM ratio (pull-down/input)
23 | GATGATTGTTCTCCCAGCTGATGAATTGTAATTATCGAGTAAACAAATTTTCCTAATCTTTCTGTTCAAGCGCCATCTAC | 1.54 RPM ratio (pull-down/input)
24 | GATGATTGTTCTCCCAGCTGATGAATTTTAGGCGTCGAGTAAACAAATTTTCCTAATCTTTCTGTTCAAGCGCCATCTAC | 0.918 RPM ratio (pull-down/input)
25 | GATGATTGTTCTCCCAGCTGATGAATTGGATTCGTCGAGTAAACAAATTTTCCTAATCTTTCTGTTCAAGCGCCATCTAC | 0.892 RPM ratio (pull-down/input)
26 | GATGATTGTTCTCCCAGCTGATGAATTGCAAGACTCGAGTAAACAAATTTTCCTAATCTTTCTGTTCAAGCGCCATCTAC | 0.996 RPM ratio (pull-down/input)
27 | GATGATTGTTCTCCCAGCTGATGAATTCGCCCCGTCGAGTAAACAAATTTTCCTAATCTTTCTGTTCAAGCGCCATCTAC | 0.769 RPM ratio (pull-down/input)
28 | GATGATTGTTCTCCCAGCTGATGAATTCTAGGCTTCGAGTAAACAAATTTTCCTAATCTTTCTGTTCAAGCGCCATCTAC | 0.817 RPM ratio (pull-down/input)
29 | GATGATTGTTCTCCCAGCTGATGAATTCCCTTATTCGAGTAAACAAATTTTCCTAATCTTTCTGTTCAAGCGCCATCTAC | 0.881 RPM ratio (pull-down/input)
30 | GATGATTGTTCTCCCAGCTGATGAATTCTCAGATTCGAGTAAACAAATTTTCCTAATCTTTCTGTTCAAGCGCCATCTAC | 0.815 RPM ratio (pull-down/input)
31 | GATGATTGTTCTCCCAGCTGATGAATTGGGACGGTCGAGTAAACAAATTTTCCTAATCTTTCTGTTCAAGCGCCATCTAC | 0.812 RPM ratio (pull-down/input)
